According to PubChem BioAssay AID1346428 (National Center for Advancing Translational Sciences (NCATS), 2018):
Screen size: about 48,000 compounds; about 1,200 (2.5%) were called active. Not shown: some 2% with an inconclusive outcome.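 The calls were made as follows: active = activation of at least 60% and not above a set upper limit (about 1 call in 100 departs from these limits); inconclusive = activation of 40% to 60%, or above that upper limit; inactive = activation under 40%.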 This is one part of the list.

molecular target: Probable G-protein coupled receptor 32 (Homo sapiens) (UniProt O75388); assay: qHTS for Agonists of Human Resolvin D1 Receptor DRV1; conditions: CHO-K1 GPR32 beta-arrestin PathHunter luminescence, 90 min; at 76.9 µM; hits give high values; zero percent set by DMSO-only wells; also: 0% is about no effect
Sequence of UniProt O75388 (O75388 whole entry, looked up): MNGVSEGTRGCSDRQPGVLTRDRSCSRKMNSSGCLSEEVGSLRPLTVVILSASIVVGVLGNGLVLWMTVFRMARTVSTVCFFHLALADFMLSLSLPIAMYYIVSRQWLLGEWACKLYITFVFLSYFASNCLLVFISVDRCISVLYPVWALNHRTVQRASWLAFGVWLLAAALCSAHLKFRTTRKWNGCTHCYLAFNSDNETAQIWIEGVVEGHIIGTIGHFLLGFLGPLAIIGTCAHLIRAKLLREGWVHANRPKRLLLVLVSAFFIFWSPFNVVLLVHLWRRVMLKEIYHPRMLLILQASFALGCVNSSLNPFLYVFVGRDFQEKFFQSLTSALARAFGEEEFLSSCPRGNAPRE
Procedure, shortened: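 PathHunter beta-arrestin recruitment in CHO-K1 cells stably expressing ProLink-tagged GPR32. Cells were exposed to compound for 90 min at 37 C, then chemiluminescence was read after 1 h detection at ambient temperature; DMSO served as basal control.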

activation, inactive:
CCOC(=O)Cn1c(=O)n(C2CCCCC2)c2nc(-c3cccc(C)c3)nc(C(N)=O)c21 6.57%
O=C1CC(c2cccc(F)c2)c2c(n3ncnc3[nH]c2=O)N1 (configuration not stated) -27.4%
COc1cccc(N2CCN(C(=O)Cn3ncc4c(=O)oc5ccccc5c43)CC2)c1 15.5%
CCCn1c(=O)c2sccc2n2c(CCCC(=O)Nc3ccccc3F)nnc12 -12.4%
CN(C(=O)c1oc(=O)c2ccccc2c1-c1ccccc1)c1cccc(Cl)c1 -41.6%
COc1ccc(-n2c(SCC(=O)NCc3ccccc3)nc3n[nH]c(C)c3c2=N)cc1 4.93%
CCCNC(C)C(=O)Nc1c(C)csc1C(=O)OC (configuration not stated) -9.71%
COc1cccc(CN2CCc3nc(N4CCN(C)CC4)ncc3C2)c1 -12.5%
COc1ccc(-n2nc(C(=O)N3CCN(c4cccc(C(F)(F)F)c4)CC3)c3c4ccccc4n(C)c3c2=O)cc1Cl -8.13%
CCOc1ccc(CCNC(=O)Cc2ccc(NC(=O)N3CCSc4ncccc43)cc2)cc1 -8.25%
Cc1oc2ncn(C)c(=O)c2c1C(=O)NCc1ccccc1 -9.82%
Cc1cccc(-c2noc(-c3cc(-c4ccc(F)cc4)n[nH]3)n2)c1 -0.456%
COc1cccc(N2CCN(C(=O)Cn3ncc4c5ccccc5n(C)c4c3=O)CC2)c1 -15%
COc1cc(OC)cc(C(=O)Nc2nc(-c3nnn(-c4ccc(F)c(Cl)c4)c3C)ns2)c1 9.29%
COc1cc(-c2noc(-c3ccc(N4CCOCC4)c([N+](=O)[O-])c3)n2)cc(OC)c1OC -23.9%
CCN(CCCNC(=O)CSc1cc(=O)n(C)c2cc(Cl)ccc12)c1cccc(C)c1 3.23%
Cc1c2cnn(-c3ccccc3)c(=O)c2c(C)n1CC(=O)N1CCN(c2ccc(F)cc2)CC1 -0.499%
Cc1ccc(OCC(=O)N(Cc2ccco2)Cc2ccco2)cc1 -11.4%
Cc1ccc(NC(=O)CSc2nc3ccccc3c3nc(CCn4cncc4C)nn23)c(C)c1 -6.91%
COc1cccc(-c2nc(CS(=O)(=O)CC(=O)Nc3cc(F)ccc3F)c(C)o2)c1 -35.5%
CCc1ccc(C(=O)c2c(N)c(-c3nc(-c4ccc5c(c4)OCO5)cs3)c3ccccn23)cc1 -9.86%
Oc1c(C(c2ccc(Br)cc2)N2CCOCC2)sc2nc(-c3ccco3)nn12 (configuration not stated) 20.9%
CCS(=O)(=O)c1nc2ccccc2n1CC(=O)Nc1ccccc1C(=O)OC 6.33%
COc1ccc(CCNC(=O)CCn2c(=O)c3ccccc3n(Cc3c(C)cc(C)cc3C)c2=O)cc1OC 2.78%
COc1ccc2nc3sc(C(=O)N4CCN(c5ccccc5)CC4)cc3cc2c1 1.57%
CN(C)c1ccc(C(CNC(=O)c2ccccc2F)N2CCc3ccccc32)cc1 (configuration not stated) -25.9%
Cc1csc2nc(CCNS(=O)(=O)c3ccccc3)cn12 -5.03%
N#Cc1ccccc1S(=O)(=O)N1CCCC(c2nc3c(nnn3Cc3cccc(Cl)c3)c(=O)[nH]2)C1 (configuration not stated) -8.27%
CC(C)CCNC(=O)CN1C(=O)c2cccnc2Oc2ccccc21 -13.9%
CN1CCN(C(=O)c2cnn(-c3cccc(Cl)c3)c2C2CCN(C(=O)OC(C)(C)C)CC2)CC1 -12.1%
COc1cccc(CNC(=O)c2ccc3c(c2)N(Cc2ccc(C(F)(F)F)cc2)C(=O)c2ccccc2S3)c1OC -14.4%
Cc1nn(-c2ccccc2)c2c1N(CCCC(=O)NCc1ccc(Cl)cc1)C(=O)CS2 0.748%
CCCCNc1nc2c(S(=O)(=O)c3ccc(Cl)cc3)nnn2c2ccsc12 -14.5%
CCOc1ccc(NC(=O)Cc2ccc(NC(=O)N3CCCCc4ccccc43)cc2)cc1 -3.92%
CC(C)(C)c1ccc(S(=O)(=O)c2cnc(SCC(=O)Nc3ccc(F)c(Cl)c3)[nH]c2=O)cc1 -13.2%
COc1ccc(-c2nnc(SCC(=O)NCc3ccccc3)nc2-c2ccc(OC)c(OC)c2)cc1OC -18.7%
Cc1ccc(CN(Cc2ccco2)C(=O)COc2ccc(Cl)cc2Cl)cc1 -6.47%
Cc1c(NC(C)C)c(=O)n(-c2ccccc2)n1C 6.05%
CCOC(=O)c1cc(-c2ccc(F)cc2)n(CC(=O)NCc2ccc(OC)cc2)c1C -14.8%
COC(=O)c1ccc([C@H]2Nc3ccc(S(=O)(=O)Nc4ccc(C)cc4)cc3[C@H]3C=CC[C@H]32)cc1 -36.6%
Cc1cn2c(=O)cc(COC(=O)c3cccc(NC(=O)COc4ccc(Cl)cc4)c3)nc2s1 -15.5%
COC(=O)c1c(NC(=O)COc2ccccc2Cl)sc2c1CCC(C(C)(C)C)C2 (configuration not stated) 8.12%
